Measured values from the antibiotic and cytotoxicity screens of Wong et al. (2023).
This is one part of the list.

Each compound was assayed on HSkMC (human skeletal muscle cells) (assay: cytotoxicity call (relative viability < 0.9)). Conditions: 10 µM.

| Compound | cytotoxicity call |
| --- | --- |
| C[C@@H]1CCCCO[C@@H](CN(C)S(=O)(=O)c2ccc(F)cc2)[C@@H](C)CN([C@H](C)CO)C(=O)c2cc(NC(=O)c3ccccc3)ccc2O1 | inactive |
| C[C@H](CO)N1C[C@H](C)[C@H](CN(C)C(=O)Nc2ccccc2)Oc2ncc(-c3cccc(C(F)(F)F)c3)cc2C1=O | inactive |
| C[C@H]1CN([C@@H](C)CO)C(=O)c2cc(NC(=O)NC3CCCCC3)ccc2O[C@H]1CN(C)Cc1ccc(Oc2ccccc2)cc1 | inactive |
| CCOC(=O)Nc1c[n+](N2CCOCC2)no1 | inactive |
| C[C@H]1CN([C@@H](C)CO)C(=O)c2ccccc2-c2ccccc2CO[C@H]1CN(C)C(=O)Nc1cccc(F)c1 | inactive |
| CCOC(=O)c1nnn(-c2nonc2N)c1CN1CCSCC1 | inactive |
| CC(C)NC(=O)N(C)C[C@H]1Oc2ccc(NC(=O)Cc3ccccc3)cc2C(=O)N([C@@H](C)CO)C[C@H]1C | inactive |
| COc1ccc([Si](C)(C)[C@@H]2[C@@H](CCn3cc([C@H](O)c4ccccc4)nn3)O[C@]3(C(=O)N(Cc4ccc(N5CCOC5=O)cc4)c4ccccc43)[C@H]2C)cc1 | inactive |
| C[C@H]1CCCCO[C@H](CN(C)S(=O)(=O)c2ccccc2)[C@@H](C)CN([C@@H](C)CO)C(=O)c2cc(NS(=O)(=O)c3cn(C)cn3)ccc2O1 | inactive |
| CCCNC(=O)Cc1nnc[nH]1 | inactive |
| C[C@H]1CN([C@@H](C)CO)C(=O)Cc2cc(NS(=O)(=O)c3cccs3)ccc2O[C@H]1CN(C)S(=O)(=O)c1cccs1 | inactive |
| Cc1noc(C)c1S(=O)(=O)Nc1ccc2c(c1)C(=O)N([C@H](C)CO)C[C@H](C)[C@@H](CN(C)C(=O)Nc1ccc(C(F)(F)F)cc1)OCCCC[C@@H](C)O2 | inactive |
